Here are results for 44 compounds from article PMC4336329 (PLoS ONE, 2015).

Screen size: about 310,000 compounds; about 2,200 (0.71%) showed an effect of 50% or more. The effect is printed as a negative number. This is one part of the list.

Chain of human ether-à-go-go-related gene (hERG) potassium channel (Q12809 whole entry, looked up): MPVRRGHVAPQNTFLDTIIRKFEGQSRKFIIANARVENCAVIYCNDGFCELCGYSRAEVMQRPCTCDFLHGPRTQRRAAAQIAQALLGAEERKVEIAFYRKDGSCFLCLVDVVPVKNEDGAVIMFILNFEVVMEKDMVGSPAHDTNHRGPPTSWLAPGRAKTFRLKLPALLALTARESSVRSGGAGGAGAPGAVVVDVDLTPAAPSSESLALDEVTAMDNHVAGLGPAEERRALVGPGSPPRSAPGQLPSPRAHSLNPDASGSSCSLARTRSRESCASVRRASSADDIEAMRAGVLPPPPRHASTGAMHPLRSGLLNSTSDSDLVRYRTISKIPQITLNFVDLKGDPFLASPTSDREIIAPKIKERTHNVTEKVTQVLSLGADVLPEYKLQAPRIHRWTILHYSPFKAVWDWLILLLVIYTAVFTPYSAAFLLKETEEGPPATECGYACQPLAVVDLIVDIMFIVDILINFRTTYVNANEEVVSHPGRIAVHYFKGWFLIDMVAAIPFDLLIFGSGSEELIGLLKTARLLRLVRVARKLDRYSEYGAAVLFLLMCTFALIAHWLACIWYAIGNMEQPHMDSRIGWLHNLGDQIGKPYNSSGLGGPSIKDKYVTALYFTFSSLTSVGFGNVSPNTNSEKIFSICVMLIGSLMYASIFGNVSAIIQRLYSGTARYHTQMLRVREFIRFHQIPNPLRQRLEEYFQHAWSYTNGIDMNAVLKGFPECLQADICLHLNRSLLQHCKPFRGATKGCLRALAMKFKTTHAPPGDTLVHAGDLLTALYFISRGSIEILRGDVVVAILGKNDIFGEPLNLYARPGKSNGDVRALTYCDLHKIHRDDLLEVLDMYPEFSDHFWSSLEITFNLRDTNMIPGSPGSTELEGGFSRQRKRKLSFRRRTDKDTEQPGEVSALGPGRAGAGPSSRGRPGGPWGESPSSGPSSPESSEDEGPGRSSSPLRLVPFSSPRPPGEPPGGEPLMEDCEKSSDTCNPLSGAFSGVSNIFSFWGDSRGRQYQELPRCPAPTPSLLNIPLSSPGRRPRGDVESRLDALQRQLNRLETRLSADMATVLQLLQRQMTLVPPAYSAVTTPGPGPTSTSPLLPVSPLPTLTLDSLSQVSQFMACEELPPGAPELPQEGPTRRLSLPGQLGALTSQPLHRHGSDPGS

This assay addresses human ether-à-go-go-related gene (hERG) potassium channel (human, UniProt Q12809). Kind of assay: primary screen, population patch clamp on CHO cells stably expressing hERG.
Take `Cc1[nH]n(-c2ccccc2)c(=O)c1C=Nc1ccc(S(=O)(=O)N=C(N)N)cc1`: the “hERG current change (%, negative = inhibition) at 1uM” value was determined as 16.6%. As to `Cl.Clc1ccc(NCc2ccsc2)cc1`, the “hERG current change (%, negative = inhibition) at 1uM” value was 19.5%. Then `N#CC1=C(N)Oc2c(ccc3cccnc23)C1c1ccccc1` (centres unmarked), with 6.62%. Turning to `CC(C)c1ccc(CNc2ccc([N+](=O)[O-])cn2)cc1`, the “hERG current change (%, negative = inhibition) at 1uM” value was found to be 9.11%. As for `COc1cc(O)oc1C=Nc1ccc(C(=O)O)cc1`, the “hERG current change (%, negative = inhibition) at 1uM” value amounted to 9.92%. The result for `S=c1[nH]nc(NCCc2ccccc2)s1` reads 7.64%. Then `CC(C)n1c(SCC(=O)NCc2ccco2)nnc1C1CC1`, with 5.89%; and `COC(=O)c1ccc(OC(=O)CN2C(=O)c3ccccc3C2=O)cc1`, with 16.6%; and `COc1ccc(C(=O)Nc2ccc(N3CCCC3)cc2)cc1Br`, with 9.05%. The result for `CCNc1nc(NC(C)C)nc(Nn2cnnc2)n1` reads -1.26%; that for `CC1(C)C(C(=O)N2CCN(c3ccc(Cl)cc3)CC2)C1(C)C`, 2.98%; that for `Cn1c(=O)[nH]c(=O)c2c1nc(SCC(=O)Nc1ccccc1)n2Cc1ccccc1`, 7.34%.

In the case of `CC(=O)Nc1ccc(C(=O)NC(CC(=O)O)c2ccc(Cl)cc2)cc1` (centres unmarked), the “hERG current change (%, negative = inhibition) at 1uM” value is 5.92%. The result for `COC(=O)[C@@H]1C[C@@]2(O)[C@H](O)[C@H](O)[C@H](O)C[C@H]2N1Cc1ccc(C(F)(F)F)cc1` reads 12.2%; that for `CNc1ccc(/C=C2\CSc3ccccc3C2=O)cc1[N+](=O)[O-]`, 3.42%. The result for `COc1cccc(N2CCN(C(=O)c3nc4nc(C)cc(C)n4n3)CC2)c1` reads 8.37%; that for `COc1ccc(C(=O)C2CCCN(Cc3ccc4c(c3)OCCO4)C2)cc1F` (centres unmarked), -42.1%. Regarding `CC(C)(C)OC(=O)N1CCC(c2cc(=O)n3[nH]cc(C(=O)Nc4ccc(F)c(Cl)c4)c3n2)CC1`, the “hERG current change (%, negative = inhibition) at 1uM” value worked out at 16.1%. The result for `O=C(NCc1cccnc1)c1csc2c1CCCC2` reads 6.9%. Then `COc1nc(N2CCCCCC2)nc(N2CCCCCC2)n1`, with 6.08%; and `COc1ccc(CC(=O)OC(C)C(=O)Nc2ccc(S(N)(=O)=O)cc2)cc1` (centres unmarked), with 6.9%.

As for `O=C(N/N=C/C(Br)=C\c1ccccc1)c1cccs1`, the “hERG current change (%, negative = inhibition) at 1uM” value is reported as 6.04%.

With `CC(=O)N1CCc2cc(S(=O)(=O)NCCCN3CCCCC3)ccc21`, the “hERG current change (%, negative = inhibition) at 1uM” value was determined as 18.2%. With `S=C(Nc1ccccc1)Nc1nc2ccccc2n1CCOc1ccccc1`, the “hERG current change (%, negative = inhibition) at 1uM” value is recorded as 5.63%. The result for `COc1ccc2c(c1)C=C(CN1CCN(Cc3ccccc3C)C(CCO)C1)CO2` (centres unmarked) reads -0.556%. `Cl.O=C(O)c1ccc(CNCc2ccccc2F)cc1`: the “hERG current change (%, negative = inhibition) at 1uM” value turned out to be 8.33%.

As for `c1ccc(Nc2nc3ccccc3o2)cc1`, the “hERG current change (%, negative = inhibition) at 1uM” value is recorded as 19.3%. The result for `C=CCOc1ccc(/C=C2\SC(=Nc3cccnc3)NC2=O)cc1` reads 8.13%; that for `Cc1onc(-c2c(F)cccc2Cl)c1C(=O)N1CCN(c2ncc(Br)cn2)CC1`, 7.62%; that for `CC(C)[C@@H](N)C(=O)NCC1CCC(C(=O)N[C@@H](Cc2ccccc2)C(=O)O)CC1.Cl` (some centres unmarked), 14%. Then `O=C(CN(c1ccc(Cl)c(Cl)c1)S(=O)(=O)c1ccccc1)N1CCc2ccccc2C1`, with 9.71%; and `O=C(CN1CCN(Cc2ccccc2)C1=O)NCCCN1CCOCC1`, with 12.8%. The result for `CCOc1ccc(N=C2SCC(=O)N2CC)cc1` reads 14.2%; that for `COc1ccc(CCNC(=O)c2cc(-c3cc(Cl)ccc3O)n[nH]2)cc1OC`, 11.8%. As for `CC(C)(C)NC(=O)CSc1ccc(C(C)(C)C)cc1`, the “hERG current change (%, negative = inhibition) at 1uM” value came to 13.2%. For the compound `O=C(Oc1cncc(Cl)c1)c1ccco1`, the “hERG current change (%, negative = inhibition) at 1uM” value is recorded as 14.1%.

Regarding `COC(=O)CNC(=O)c1cc(-c2ccncc2)nc2c(C)c(Cl)ccc12`, the “hERG current change (%, negative = inhibition) at 1uM” value is 6.54%.

Regarding `COCc1cc(C)n(CC(=O)Nc2ccc(Cl)cc2Cl)c(=O)c1C#N`, the “hERG current change (%, negative = inhibition) at 1uM” value was 10.7%. Then `CC(=O)c1cc2c(cc1NC(=O)CCc1c(C)nc3ncnn3c1C)OCO2`, with 8.93%. The result for `CCOC(=O)C1(Cc2cccc(OC)c2)CCCN(C(=O)c2cc(C)[nH]n2)C1` (centres unmarked) reads 1.62%; that for `C/C(=N\NC(=O)c1nnn(-c2nonc2N)c1CSc1ccccc1)c1ccco1`, 13.7%. As to `Cc1ccc(C)c(NC(=O)C(CC(=O)O)Cc2ccccc2)c1` (centres unmarked), the “hERG current change (%, negative = inhibition) at 1uM” value stood at 10.9%. Then `O=C(C1CCCC1)N1CCCC(Nc2ccccc2)C1` (centres unmarked), with -1.84%; and `CCOC(=O)N1CCC(NC(=O)CCC(=O)c2ccccc2)CC1`, with 3.19%.
